# Source: PubChem BioAssay AID463173 (ICCB-Longwood Screening Facility, Harvard Medical School, 2010)
# The campaign covered roughly 52,000 compounds. About 4,300 (8.3%) were called active. Cut-off read from the data, not from the text of the source: active = survival mostly below about 52% (no sharp cut-off); inactive = mostly above about 56%. The list shows a part of the results.
# Test system: DeltatarO mutant
# Assay: S. aureus survival, RN4220 and DeltatarO strains – OD600, teichoic acid synthesis inhibitors, primary screen (AID 463173)
# Details: S. aureus RN4220 wild type/DeltatarO growth, OD600, 18 h, hits give low values, screened at 18.75 µg/mL (by protocol)
row,SMILES,survival
1,CC1=C(C#N)c2nc(N)c(C#N)c(C)c2/C1=C\c1cccnc1,inactive: 92%
2,O=C(CN1C(=O)CCc2cc(S(=O)(=O)N3CCCCC3)ccc21)NCc1ccc(Cl)cc1,inactive: 78%
3,CCc1ccc(NC(=O)CSc2ncc(S(=O)(=O)c3cc(C)ccc3C)c(=O)[nH]2)cc1,inactive: 59%
4,COc1ccc(CC(=O)NC2CC(=O)N(c3ccc(C)c(C)c3)C2)cc1OC (centres undefined),inactive: 63%
5,O=C(Cn1c(=O)oc2cc(S(=O)(=O)N3CCCCC3)ccc21)NCc1ccc(F)cc1,inactive: 109%
6,CC1CCN(c2nc3ccc(C(=O)NCCc4ccc(S(N)(=O)=O)cc4)cc3s2)CC1,inactive: 98%
7,CC1Cc2ccccc2N1C(=O)c1cc2sccc2n1Cc1ccc(F)cc1 (centres undefined),inactive: 98%
8,CCn1c(SCC(=O)c2ccccc2)nnc1-c1cccc(Cl)c1,active: 39%
9,CCc1c(CN2CCN(c3ccccc3F)CC2)csc1C,active: 32%
10,CN(C)c1ccc2c(c1)S(=O)(=O)c1cc(N(C)C)ccc1C2=O,inactive: 75%
11,O=C(Cn1c(-c2cccs2)cc2cc(F)ccc21)NCCCN1CCN(c2ccc(F)cc2)CC1,inactive: 89%
12,Cc1ccc(/C=C/c2onc(C)c2S(=O)(=O)N2CCC(C(=O)NCc3ccc(OC(C)C)cc3)CC2)cc1,inactive: 69%
13,COc1ccc(-c2c(C)c3ccc(O)c(CN4CCCC4)c3oc2=O)cc1,inactive: 91%
14,COc1cccc(CNCCSc2nnnn2-c2ccccc2)c1OC,inactive: 51%
15,Cc1ccc(S(=O)(=O)NCCSc2nnc3nc(C)cc(C)n23)cc1,inactive: 67%
16,Cc1ccc(C)c(N2CCN(C(=O)CS(=O)(=O)c3cccc4nsnc34)CC2)c1,inactive: 98%
17,COc1ccc(OCC(=O)NCC(c2ccc(OC)cc2)N2CCOCC2)cc1 (centres undefined),inactive: 98%
18,Cc1cc(NC(=O)c2cnc3c(-c4ccccc4)c(C)nn3c2C)ccc1Br,inactive: 100%
19,Cc1cc(NC(=O)C(C)(C)C)cc(-c2nc3ncccc3o2)c1O,inactive: 78%
20,Cc1cccc(N2CCN(C(=O)CN3C(=O)COc4ccc(S(=O)(=O)N5CCCC5)cc43)CC2C)c1 (centres undefined),inactive: 77%
21,CCOc1ccc(-n2nc(CO)c(C(=O)NCC(C)O)n2)cc1 (centres undefined),active: 39%
22,COc1ccc(OCCn2nnc3sc4c(c3c2=O)CCCC4)cc1,inactive: 83%
23,COc1ccc(N2CCN(c3ncnc4c3nnn4C)CC2)cc1,active: 0%

row,SMILES,survival
1,COCCn1c(N)cc(=O)[nH]c1=S,inactive: 95%
2,Cc1ccc(-c2nc(CS(=O)CC(=O)NCCc3ccc(Cl)cc3)c(C)o2)cc1 (centres undefined),inactive: 77%
3,CC(CNC(=O)CCCn1c(=O)c2cccn2c2ccc(F)cc21)c1ccccc1 (centres undefined),active: 35%
4,Cc1cccc(C(=O)NNc2ncnc3c2cnn3-c2ccc(C)c(Cl)c2)c1,inactive: 57%
5,COc1cc(NC(=O)C2Cc3ccccc3N2C(=O)c2ccccc2)cc(OC)c1 (centres undefined),inactive: 67%
6,O=C(CSc1ncc2c(n1)-c1ccccc1N(Cc1ccc(Cl)cc1)S2(=O)=O)c1ccccc1,inactive: 144%
7,Cc1nnnn1CCC(=O)NC(C)c1ccccc1 (centres undefined),inactive: 84%
8,CCOc1ccccc1Nc1sc(C(=O)c2ccc(Cl)cc2)c(N)c1S(=O)(=O)c1ccccc1,active: 25%
9,Cc1cccc(N2CCN(C(=O)c3ccc4c(c3)N(Cc3cccc(Cl)c3)C(=O)c3ccccc3S4(=O)=O)CC2)c1C,inactive: 106%
10,CCN(Cc1ccccc1)C(=O)Cn1ncc2c(=O)oc3ccc(C)cc3c21,inactive: 89%
11,CCOc1ccc(NC(=O)CCc2nnc3n(C)c(=O)c4sccc4n23)cc1,inactive: 194%
12,CCOC(=O)c1c(C)[nH]c(C)c1S(=O)(=O)NCC(=O)NCc1ccccc1C,inactive: 126%
13,CCOc1ccccc1CNS(=O)(=O)c1cc(-c2onc(C)c2C)ccc1OC,inactive: 81%
14,CCOC(=O)C1CCN(c2ncnc3c2c(-c2ccccc2)cn3-c2ccc(Cl)cc2)CC1,inactive: 71%
15,Cc1ccc(NC(=O)Cn2c(=O)n(CCCCC(=O)NCc3ccc4c(c3)OCO4)c(=O)c3ccccc32)cc1,inactive: 72%
16,CCC(=O)N1c2ccccc2CC1C(=O)N1CCN(c2ccccc2F)CC1 (centres undefined),inactive: 80%
17,N#Cc1c(C(F)(F)F)cc(-c2cccs2)nc1SCc1ccccc1F,inactive: 48%
18,CCOc1ccccc1Oc1nc(C)nc2c1oc1ccccc12,inactive: 124%
19,Clc1ccccc1CSc1nc(NCCc2ccccc2)c2ccccc2n1,inactive: 66%
20,Cc1ccc(Cl)cc1Nc1nn2c(=O)c3ccc(C(=O)NC(C)c4ccccc4)cc3nc2s1 (centres undefined),inactive: 105%
21,Cc1ccc(Cl)cc1N1CCN(C(=O)CCS(=O)(=O)c2ccc3c(c2)oc(=O)n3C)CC1,inactive: 83%
22,COc1ccccc1CNC(=O)CCc1c(C)nn(-c2ccc(N3CCCCC3)nn2)c1C,inactive: 90%
23,Cc1ccc(S(=O)(=O)C(CNS(=O)(=O)c2ccc(F)c(C(F)(F)F)c2)c2ccco2)cc1 (centres undefined),inactive: 102%

row,SMILES,survival
1,CCC(C(=O)NC1CCCCC1)n1c(SCc2cccc(F)c2)nc2ccncc21 (centres undefined),inactive: 81%
2,CC1(C)CC(CC#N)(Cc2ccccc2)CCO1 (centres undefined),inactive: 93%
3,COc1ccccc1NC(=O)Cn1ccn(-c2cc(C)cc(C)c2)c(=O)c1=O,inactive: 55%
4,CC(CNC(=O)C1CCN(C(=O)c2cc3sccc3n2C)CC1)c1ccccc1 (centres undefined),inactive: 66%
5,O=C(NCc1ccc2c(c1)OCO2)C1CCN(c2ncccn2)CC1,inactive: 88%
6,CCOc1ccc(CNCc2c(C(=O)O)n(Cc3ccccc3C)c3cc(OC)ccc23)cc1OC,inactive: 106%
7,Cc1ccc2oc(-c3ccc(C)c(NC(=O)c4ccc(-c5ccccc5[N+](=O)[O-])o4)c3)nc2c1,inactive: 68%
8,CCOc1ccc(S(=O)(=O)N(CC(=O)Nc2ccc3c(c2)OCO3)c2ccc(C)cc2)cc1,inactive: 50%
9,COC(=O)c1ccc2nc(C)cc(Nc3cccc(Cl)c3C)c2c1,inactive: 153%
10,COCC(=O)Nc1c(C(=O)Nc2ccc(C)cc2)oc2ccccc12,inactive: 86%
11,Cc1ccc(NC(c2nnc(-c3ccccc3)o2)c2ccccc2F)c(Cl)c1 (centres undefined),inactive: 85%
12,Cc1ccc(Nc2nc(C(=O)N3CCC(C(=O)NCCN4CCOCC4)CC3)cs2)cc1,inactive: 89%
13,Cc1ccc2onc(CNC(=O)N3CCN(c4cccc(C(F)(F)F)c4)CC3)c2c1,inactive: 65%
14,CCN(CC)S(=O)(=O)c1ccc(N2CCCCS2(=O)=O)cc1,inactive: 75%
15,Cc1ccc(CNC(=O)CN2C(=O)CCc3cc(S(=O)(=O)N4CCCCC4)ccc32)cc1,inactive: 84%
16,CCn1cc(S(=O)(=O)c2ccc(Cl)cc2)c(=O)c2cc(F)c(N3CCOCC3)cc21,inactive: 83%
17,COc1cc(CN(C(=O)c2ccc(Cl)cc2)C2CCS(=O)(=O)C2)cc(OC)c1OC (centres undefined),inactive: 69%
18,COC(=O)/C(C#N)=C\c1c[nH]c2ccccc12,inactive: 94%
19,CCOc1ccc(-n2c(=O)c3c(C)c(C(=O)N(C)C)sc3n(Cc3cc(C)ccc3C)c2=O)cc1,active: 0%
20,Cc1ccc(S(=O)(=O)C(CNC(=O)C(=O)NCc2ccc(Cl)cc2)c2ccco2)cc1 (centres undefined),inactive: 109%
21,CCOc1ccc(-c2nc3cc(NC(=O)COc4cccc(C)c4)ccc3o2)cc1,inactive: 116%
22,CN(C(=O)CSc1nc2ccccc2n1Cc1ccccc1C#N)c1ccccc1,inactive: 72%
23,CCCC(OC(=O)CN1C(=O)COc2ccccc21)C(=O)NC1CCCC1 (centres undefined),inactive: 85%

row,SMILES,survival
1,CCOc1ccccc1CNC(=O)c1oc2ccc3c(c2c1C)C(=O)CC(C)(C)O3,inactive: 66%
2,O=c1c2sc3ccccc3c2n(Cc2ccc(F)cc2Cl)c(=O)n1Cc1ccccc1,inactive: 91%
3,FC(F)(F)C(F)(F)C(F)(F)c1nnc2ccc(N3CCOCC3)nn12,inactive: 97%
4,Cc1cc(C)c(NS(=O)(=O)c2ccc(-c3coc(C)n3)cc2)c(C)c1,inactive: 94%
5,COc1cc(C(=O)NCc2nc3cccnc3n2Cc2ccc(C)cc2)cc(OC)c1OC,inactive: 88%
6,O=C(NCc1ccc(Cl)cc1)C1CCN(S(=O)(=O)c2ccccc2)CC1,inactive: 131%
7,COc1ccc(N(C(=O)c2ccccc2)S(=O)(=O)c2ccc3c(c2)n(C)c(=O)n3C)cc1,inactive: 89%
8,Cc1ccc(-n2c(=O)c3c(C)c(C)sc3n(Cc3ccc(F)cc3Cl)c2=O)cc1C,active: 38%
9,CN(C(=O)c1cc2nc(-c3ccco3)cc(C(F)(F)F)n2n1)C12CC3CC(CC(C3)C1)C2,inactive: 110%
10,COc1ccc(CCNC(=O)Cc2c(C)c3cc4c(C)coc4cc3oc2=O)cc1OC,inactive: 89%
11,Oc1ccc(-c2nc3ccc(Cl)cn3c2Nc2ccc3c(c2)OCO3)cc1,inactive: 106%
12,CCOc1ccc(C2C(=O)N(C3CCCCC3)CC(=O)N2CCc2ccccc2)cc1OC (centres undefined),inactive: 86%
13,CC1CCN(C(=O)C(C)NCc2ccc(F)cc2)CC1 (centres undefined),inactive: 98%
14,CC(NC(=O)c1ccc(F)cc1)c1nc2ccccc2[nH]1 (centres undefined),inactive: 83%
15,CCc1ccc(NC(=O)Cn2c(=O)n(-c3cc(OC)c(OC)c(OC)c3)c(=O)c3ccccc32)cc1,inactive: 72%
16,Cc1cc(C(=O)C(=O)Nc2nncs2)c(C)n1-c1ccc(Cl)cc1,inactive: 83%
17,COc1ccccc1NC(=O)c1cn(-c2ccccc2)nc1-c1ccccc1,inactive: 95%
18,Cc1cccc(N2CCN(C(=O)c3noc4c3CCCCC4)CC2)c1C,inactive: 107%
19,N#Cc1nc(/C=C/c2ccc(F)cc2)oc1NCc1ccc(F)cc1,inactive: 72%
20,COc1ccc(N2CCN(C(=O)CNS(=O)(=O)c3ccc(Br)s3)CC2)cc1,active: 32%
